Measurements taken from patent publication US20230310557A1 (ATB THERAPEUTICS, published 2023).

B1: ATB 229 (Fc fusion)
chain: EVQLVESGGGLVQPGGSLRLSCAASGYTFSSYWIEWVRQAPGKGLEWIGEILPGGGDTNYNEIFKGRATFSADTSKNTAYLQMNSLRAEDTAVYYCTRRVPIRLDYWGQGTLVTVSSGGGGSGGGGSGGGGSDIQLTQSPSSLSASVGDRVTITCKASQSVDYEGDSFLNWYQQKPGKAPKLLIYAASNLESGVPSRFSGSGSGTDFTLTISSLQPEDFATYYCQQSNEDPLTFGQGTKVEIKAS[human IgG1 Fc and a few adjoining residues not written out]GNRVRRSVGAVTWTCLNDQKNPKTNKYETKRLLYNQNKAESNSHHAPLSDGKTGSSYPHWFTNGYDGDGKLPKGRTPIKFGKSDCDRPPKHSKDGNGKTDHYLLEFPTFPDGHDYKFDSKKPKENPGPARVIYTYPNKVFCGIIAHTKENQGELKLCSH
B2: ATB 221 (Fc fusion)
chain: EVQLVESGGGLVQPGGSLRLSCAASGYTFSSYWIEWVRQAPGKGLEWIGEILPGGGDTNYNEIFKGRATFSADTSKNTAYLQMNSLRAEDTAVYYCTRRVPIRLDYWGQGTLVTVSSGGGGSGGGGSGGGGSDIQLTQSPSSLSASVGDRVTITCKASQSVDYEGDSFLNWYQQKPGKAPKLLIYAASNLESGVPSRFSGSGSGTDFTLTISSLQPEDFATYYCQQSNEDPLTFGQGTKVEIKAS[human IgG1 Fc and a few adjoining residues not written out]RHRQPRGWEQLAVTWTCLNDQKNPKTNKYETKRLLYNQNKAESNSHHAPLSDGKTGSSYPHWFTNGYDGDGKLPKGRTPIKFGKSDCDRPPKHSKDGNGKTDHYLLEFPTFPDGHDYKFDSKKPKENPGPARVIYTYPNKVFCGIIAHTKENQGELKLCSH

Target: T1, CD79b on target cells (JEKO, OCY-LY3, BJAB, WSU-DLCL2) (human, UniProt P40259 29-229)
T1 sequence: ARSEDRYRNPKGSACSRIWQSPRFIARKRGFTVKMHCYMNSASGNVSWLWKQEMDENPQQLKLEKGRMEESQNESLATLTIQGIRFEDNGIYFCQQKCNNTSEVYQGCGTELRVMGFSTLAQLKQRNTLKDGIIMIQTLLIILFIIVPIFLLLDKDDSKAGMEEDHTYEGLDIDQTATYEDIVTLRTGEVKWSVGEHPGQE
Assay: cell-based or functional assay

Binder | cell viability IC50 (Cell Titer Glo, 72 h), JEKO cells
B1 | 0.0637 nM
B2 | 0.141 nM
